Laboratory results reported in PubChem BioAssay AID2147 (National Center for Advancing Translational Sciences (NCATS), 2009).
In all, about 230,000 compounds went through this assay and about 3,600 (1.6%) were called active. The inconclusive results got no clear call from the source; some entries with a clear call stand among them for comparison. Calls come from the whole dose curve; as a rule, active = well fitted inhibition curve with a large enough effect (not every such curve was filed as active); inconclusive = small, poorly fitted or top-dose-only effect, or another doubt; inactive = no such curve, though single readings can be large or run the other way. Potencies of inconclusive entries are doubtful fits and often do not repeat.

Biological target: Lysine-specific demethylase 4E (Homo sapiens) (UniProt B2RXH2)
Sequence of UniProt B2RXH2 (B2RXH2 whole entry, looked up, the tested form may be a part): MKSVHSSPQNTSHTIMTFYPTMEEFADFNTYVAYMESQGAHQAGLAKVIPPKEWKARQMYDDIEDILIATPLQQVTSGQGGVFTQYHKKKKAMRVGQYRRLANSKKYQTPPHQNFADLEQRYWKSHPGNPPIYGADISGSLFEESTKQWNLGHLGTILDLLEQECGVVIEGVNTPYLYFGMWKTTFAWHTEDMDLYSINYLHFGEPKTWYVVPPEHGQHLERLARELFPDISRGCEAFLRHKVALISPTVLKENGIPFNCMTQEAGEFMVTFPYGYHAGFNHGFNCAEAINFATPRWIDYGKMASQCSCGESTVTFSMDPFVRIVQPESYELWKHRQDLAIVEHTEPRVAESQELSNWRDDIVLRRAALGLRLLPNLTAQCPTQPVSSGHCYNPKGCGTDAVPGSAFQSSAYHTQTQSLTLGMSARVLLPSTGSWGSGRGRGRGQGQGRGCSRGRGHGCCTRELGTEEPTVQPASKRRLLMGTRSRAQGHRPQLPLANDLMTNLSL
Assay: qHTS Assay for Inhibitors of Human Jumonji Domain Containing 2E (JMJD2E)
Details: JMJD2E catalytic domain, FDH-coupled NADH fluorescence (FDH is formaldehyde dehydrogenase); series mostly up to 57.1 µM
Note: nearly all actives have a fitted effect of over 50% in size.
Potency is the fitted concentration of half-maximal effect; tags give direction and shape of the fitted curve.

SMILES	Potency
Cc1[nH]c2ccccc2c1N=Nc1c(C)n(C)n(-c2ccccc2)c1=O	inactive
N#C/C(=C\c1cc(Cl)cc(Cl)c1O)C(=O)NC1CCCCC1	inconclusive: 25.1 µM [inhibitor, partial curve]
COCCCNC(=O)c1ccc2c3c(onc13)-c1ccccc1C2=O	inconclusive: 31.6 µM [inhibitor, partial curve]
CCN(CC)CCCNC(=O)C1c2ccccc2C(=O)N(CCOC)C1c1ccc(F)cc1 (stereo not drawn)	inactive
Cc1cccc(NC(=O)CCSc2ccccn2)c1	inactive
CCOC(=O)c1cnc2c(ccc3ccccc32)c1NCCO	inconclusive: 28.2 µM [inhibitor, partial curve]
COc1cccc(Nc2nc3ccccc3nc2-n2nc(C)cc2C)c1	inconclusive: 28.2 µM [inhibitor, partial curve]
O=C(O)c1ccc(N/N=C/c2cn(-c3ccccc3)nc2-c2cccs2)cc1	inconclusive: 31.6 µM [inhibitor, partial curve]
COC(=O)c1cc(COc2ccc3c4c(c(=O)oc3c2)CCC4)c(C)o1	inconclusive: 28.2 µM [inhibitor, single point]
CC(C)N1C(=O)S/C(=C/c2cccnc2)C1=O	inactive
Cc1cccn2c(=O)c(/C=C(\C#N)C(=O)NC3CCS(=O)(=O)C3)c(N3CC(C)OC(C)C3)nc12 (stereo not drawn)	inconclusive: 14.1 µM [inhibitor, partial curve]
COc1ccc(O)c(C2=Nc3ccccc3N=C(c3ccccc3)C2)c1	inconclusive: 39.8 µM [inhibitor, single point]
Cc1cc(-c2cc(-c3ccccc3)on2)nc(NC2CCCC2)n1	inconclusive: 28.2 µM [inhibitor, partial curve]
CSc1nc(-c2ccc(C)cc2)[nH]c1S(=O)(=O)c1ccccc1	inactive
COc1ccc2cc3cc(C(=O)NCC4CCCO4)oc3nc2c1 (stereo not drawn)	inconclusive: 31.6 µM [inhibitor, partial curve]
CCc1ccc(C(=O)NCC2COc3ccccc3O2)o1 (stereo not drawn)	inactive
O=C(Nc1ccc(S(=O)(=O)Nc2ncccn2)cc1)c1ccccc1NS(=O)(=O)c1ccc(Cl)cc1	inconclusive: 31.6 µM [inhibitor, partial curve]
Fc1cccc(-c2csc(-c3ccno3)n2)c1	inconclusive: 39.8 µM [inhibitor, single point]
CCOC(=O)c1cnn(-c2ccccc2)c1NC(=O)CN1CCCCC1	inactive
Cc1ccc(Nc2nc(Cl)c(C=O)s2)cc1Cl	inconclusive: 35.5 µM [inhibitor, single point]
Cc1cccc(Nc2nc(N)c([N+](=O)[O-])c(N3CCCC(C)C3)n2)c1 (stereo not drawn)	inactive
CCCn1c(-c2ccc(F)cc2)nc2c(NC3CCN(Cc4ccccc4)CC3)nc(C)nc21	inconclusive: 31.6 µM [inhibitor, partial curve]
COc1ccc(-c2nc(C#N)c(NCc3cccnc3)o2)cc1OC	inconclusive: 28.2 µM [inhibitor, partial curve]
CSc1ccccc1NC(=O)c1cc(CC(C)C)on1	inconclusive: 14.1 µM [inhibitor, partial curve]
CCCCNC(=O)COC(=O)c1cc(C)nc2ccccc12	inconclusive: 39.8 µM [inhibitor, single point]

SMILES	Potency
Cc1cccn2c(=O)c3cc(C(=O)NCC4CCCO4)c(=N)n(Cc4cccnc4)c3nc12 (stereo not drawn)	inconclusive: 31.6 µM [inhibitor, partial curve]
Cc1cn(S(=O)(=O)c2ccc(Br)c3ccccc23)cn1	inactive
CCCc1nc(NC2CCCCC2)c(C#N)c2c1COC(C)(C)C2	inconclusive: 8.91 µM [inhibitor, partial curve]
Cc1ccnc(N2CCC(C(=O)Nc3ccc4c(c3)OCO4)CC2)n1	inconclusive: 20 µM [inhibitor, partial curve]
CCN(CC)c1cc(C)c2cc(NC(=O)CNC(C)=O)ccc2n1	inconclusive: 28.2 µM [inhibitor, partial curve]
COc1cc2c(cc1OC)OC(C)(C)C=C2	inactive
CCN1CCCC(OC(=O)c2cc(-c3ccccc3Cl)nc3ccccc23)C1 (stereo not drawn)	inconclusive: 2.51 µM [inhibitor, partial curve]
O=C(c1cnc(N2CCN(c3ncccn3)CC2)c2ccccc12)N1CCN(c2ccccn2)CC1	inconclusive: 31.6 µM [inhibitor, single point]
CCCc1cc(=O)oc2cc(OCc3nn[nH]n3)ccc12	inconclusive: 31.6 µM [inhibitor, partial curve]
CCOC(=O)C1CCN(C(c2ccccn2)c2c(C)[nH]c3ccccc23)CC1 (stereo not drawn)	inconclusive: 31.6 µM [inhibitor, single point]
CCOC(=O)c1cc([N+](=O)[O-])c([N+](=O)[O-])cc1NC(C)=O	inactive
COc1ccc2c(c1)[nH]c1c(=O)n(CC3CCCO3)cnc12 (stereo not drawn)	inconclusive: 39.8 µM [inhibitor, single point]
Nc1ccccc1Nc1ccccc1	inconclusive: 12.6 µM [inhibitor, partial curve]
COc1ccc(-n2nnnc2/C=C\Nc2ccc(C)cc2)cc1	inconclusive: 39.8 µM [inhibitor, single point]
O=C(Nc1nnc(-c2cccnc2)o1)c1cccc([N+](=O)[O-])c1	inconclusive: 35.5 µM [inhibitor, single point]
CC(=O)O[C@]1(C(C)=O)CC[C@H]2[C@@H]3C=C(Cl)C4=CC(=O)CC[C@]4(C)[C@H]3CC[C@@]21C	inactive
COc1ccc2[nH]c(=O)c(C(c3nnnn3C(C)(C)C)N(Cc3ccco3)CC3CCCO3)cc2c1 (stereo not drawn)	inconclusive: 28.2 µM [inhibitor, partial curve]
O=C(CC1Nc2ccccc2NC1=O)NC1CCCCC1 (stereo not drawn)	inconclusive: 35.5 µM [inhibitor, single point]
Cc1cc(C)n2c(Br)c(CSc3nc4ccccc4o3)nc2n1	inconclusive: 35.5 µM [inhibitor, partial curve]
COc1ccc(-c2csc(-c3ccc(O)cc3)n2)cc1	inconclusive: 39.8 µM [inhibitor, single point]
COc1ccc(C2=CSC3=C(C(=O)c4cccc(S(=O)(=O)N(C)C)c4)CCN23)cc1	inactive
Cc1nc(-n2ncc(C#N)c2N)c2c3c(sc2n1)CCC3	inactive
O=C(c1ccccc1)c1c2c(cc3sc4ccccc4[n+]13)-c1cccc3cccc-2c13	active: 15.8 µM
CCOc1ccc(NC2C=CS(=O)(=O)C2)cc1 (stereo not drawn)	inactive
O=c1nc2n(c3ccccc13)Cc1ccccc1-2	inconclusive: 22.4 µM [inhibitor, partial curve]

SMILES	Potency
CCOc1ccc(NC(=O)C(C)Sc2nnc(C)n2C)cc1 (stereo not drawn)	inactive
CCc1ccc(CNC(=O)Cn2nc(-c3ccc(C)cc3)ccc2=O)cc1	inconclusive: 31.6 µM [inhibitor, partial curve]
Cc1c(CN2CCCCC2)c(O)n(CCCO)c(=O)c1C#N	inconclusive: 25.1 µM [inhibitor, partial curve]
Cc1cc(S(=O)(=O)N(C)CCc2ccccc2)ccc1-n1cnnn1	inactive
O=C(NC(C(=O)c1ccccc1)N1CCCCCC1)c1ccco1 (stereo not drawn)	inactive
Cc1ccn(C)c(=N)c1	inconclusive: 35.5 µM [inhibitor, single point]
COc1ccc2[nH]c(=O)c(CN(C(=O)c3cccnc3)c3ccc(C)c(C)c3)cc2c1	inconclusive: 35.5 µM [inhibitor, partial curve]
O=C(O)c1cc([N+](=O)[O-])ccc1Nc1ccccc1	inactive
CN(C)CCCOc1ccc(Cl)cc1Br	inactive
CCN(CC)c1ccc(/C=N/NC(=O)c2ccc(O)cc2)cc1	inconclusive: 28.2 µM [inhibitor, partial curve]
C=C(C)CNC(=S)Nc1nc2c(cc1C(=O)OCC)CCCC2	inconclusive: 39.8 µM [inhibitor, single point]
O=C(CN1CCc2ccccc2C1)Nc1ccccc1N1CCCCCC1	inconclusive: 28.2 µM [inhibitor, single point]
CCOC(=O)/C=C(\C)Sc1cc(O)c2ccccc2c1O	active: 3.55 µM
CC1(C)Cc2c(c(-c3ccco3)nc3n[nH]c(N)c23)CO1	inactive
Cc1ccccc1-n1c(SC/C(O)=C(\C#N)c2nc3ccccc3[nH]2)nnc1-c1ccncc1	inconclusive: 39.8 µM [inhibitor, single point]
CN1CCN(Cc2c(O)ccc3cc(Br)ccc23)CC1	inconclusive: 22.4 µM [inhibitor, single point]
O=C(COc1ccccc1)N1CCN(c2ccc([N+](=O)[O-])c(N3CCCCC3)c2)CC1	inactive
CC1CN(S(=O)(=O)c2cccc(C(=O)OCc3cc(=O)oc4cc(O)ccc34)c2)CC(C)O1 (stereo not drawn)	inconclusive: 22.4 µM [inhibitor, partial curve]
CCOC(=O)N1CCC(NC(=O)c2cc(S(=O)(=O)N3CCC4(CC3)OCCO4)ccc2F)CC1	inconclusive: 35.5 µM [inhibitor, single point]
COC(=O)c1cccc(N2C(=O)C(Cl)=C(N3CCOCC3)C2=O)c1	inactive
CCS(=O)(=O)Nc1cccc(-c2nc3cccnc3s2)c1	inactive
O=C(N/N=C/c1cc([N+](=O)[O-])ccc1O)c1c[nH]c2ccccc12	inconclusive: 39.8 µM [inhibitor, single point]
CCOc1c2ccc(C(=O)NCc3ccco3)cc2nn1CC	inconclusive: 22.4 µM [inhibitor, partial curve]
